{"source": "PubChem BioAssay AID1508624", "about": "(National Center for Advancing Translational Sciences (NCATS), 2021)", "note": "Hit rate of the full screen: of about 48,000 compounds, about 120 (0.25%) were called active. Roughly 4% stayed inconclusive and do not appear here. Calls come from the whole dose curve; as a rule, active = well fitted activation curve with a large enough effect; inconclusive = small, poorly fitted or top-dose-only effect, or another doubt; inactive = no such curve, though single readings can be large or run the other way. This is one part of the list."}
{"assay": "Primary qHTS for Identification of Small Molecule Activators of Huntingtin-Antisense Promoter Activity; note: nearly all actives have a fitted effect of over 55% in size", "conditions": "HEK293 HTT-AS promoter firefly luciferase reporter, 24 h; series mostly up to 57.5 µM; activity change, positive = activation: at the top concentration", "outline": "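HEK293 Fluc reporter, 2,500 cells/well, 24 h pre-culture; cpds up to 57.5 uM final, 24 h 37 degrees C; Dual-Glo, 10 min RT; normalized vehicle = 0%, zero RLU = -100%.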"}
{"smiles": "Cc1cccc(N2CCN(C3(c4ccccc4)C(=O)c4ccccc4C3=O)CC2)c1C", "activity change, positive = activation": "inactive: 3.49%"}
{"smiles": "Cc1ccc(S(=O)(=O)N2CCOCC2)cc1C(=O)Nc1ccccc1C(=O)O", "activity change, positive = activation": "inactive: -12.2%"}
{"smiles": "O=S(=O)(Nc1ccc2nc(-c3cccc(Cl)c3)oc2c1)c1ccccc1", "activity change, positive = activation": "inactive: 4.19%"}
{"smiles": "COc1ccc(CCNC(=O)c2c(C)nn(-c3ccc(F)cc3)c2-n2cccc2)cc1OC", "activity change, positive = activation": "inactive: -34.3%"}
{"smiles": "Cc1ccc2onc(CC(=O)N(C)c3ccccc3)c2c1", "activity change, positive = activation": "inactive: -3.25%"}
{"smiles": "CC(=O)N[C@@H](CCC(N)=O)C(=O)O", "activity change, positive = activation": "inactive: -3.89%"}
{"smiles": "O=S(=O)(Nc1nc2n(n1)C(c1ccc(F)cc1)C=C(c1ccccc1)N2)c1ccc(Cl)cc1", "note": "(centres undefined)", "activity change, positive = activation": "inactive: -19.5%"}
{"smiles": "CC(C)Sc1ncc(Cl)c(C(=O)Nc2nnc(C(C)C)s2)n1", "activity change, positive = activation": "inactive: 23%"}
{"smiles": "CCc1ccc(NC(=O)Cn2c(=O)oc3cc(S(=O)(=O)N4CCCCCC4)ccc32)cc1", "activity change, positive = activation": "inactive: -48.8%"}
{"smiles": "Cc1onc(-c2ccc(F)cc2F)c1C(=O)Nc1cccc(C(F)(F)F)c1", "activity change, positive = activation": "inactive: -27.9%"}
{"smiles": "CN(C(=O)C(=O)Nc1ccc2nc3n(c(=O)c2c1)CCCCC3)c1cccc(C(F)(F)F)c1", "activity change, positive = activation": "inactive: -20.5%"}
{"smiles": "CCc1ccc(CNC(=O)c2cc(-c3ccc(Br)s3)nc3ccccc23)cc1", "activity change, positive = activation": "inactive: 2.18%"}
{"smiles": "O=C(Nc1ccccc1)c1cccc(S(=O)(=O)Nc2cccc(F)c2)c1", "activity change, positive = activation": "inactive: -21.4%"}
{"smiles": "COc1cccc(-c2ccc3c(N)c(C(=O)NCc4ccc(Cl)cc4)sc3n2)c1", "activity change, positive = activation": "inactive: -29%"}
{"smiles": "CCCNC(=O)C1CCN(c2ncnc3c2nc2n3CCCCC2)CC1", "activity change, positive = activation": "inactive: -3.19%"}
{"smiles": "CCOC(=O)N1CCc2c(sc(NCc3ccc(OC)c(OC)c3OC)c2C(=O)Nc2ccc(OC)cc2OC)C1", "activity change, positive = activation": "inactive: -85.8%"}
{"smiles": "CCCC(=O)NCC(c1ccc2c(c1)OCO2)N1CCN(c2ccccc2)CC1", "note": "(centres undefined)", "activity change, positive = activation": "inactive: -10.4%"}
{"smiles": "CCCCCOc1ccc(/C=C/C(=O)Nc2sc(C(C)=O)c(C)c2C(=O)OCC)cc1OC", "activity change, positive = activation": "inactive: 2.78%"}
{"smiles": "CCc1ccc(-n2c(=O)c3sc4ccccc4c3n(Cc3cccc(F)c3)c2=O)cc1", "activity change, positive = activation": "inactive: -9.05%"}
{"smiles": "Cc1oc(C)c2c(=O)cc(-c3ccc4c(c3)OCO4)cc(OC(=O)c3ccccc3Cl)c12", "activity change, positive = activation": "inactive: -14.2%"}
{"smiles": "C=C1CCC2[C@](C)(CO)C(O)CC[C@]2(C)C1CC=C1C(=O)OCC1O", "note": "(some centres undefined)", "activity change, positive = activation": "inactive: -4.74% [at 116 µM, percent change from vehicle, -100% = no light]"}
{"smiles": "CC(=O)NO", "activity change, positive = activation": "inactive: -0.814%"}
{"smiles": "Cc1c(Cl)cccc1NC(=O)Cn1c(=O)nc(-c2ccccc2)c2ccccc21", "activity change, positive = activation": "inactive: -40.9%"}
{"smiles": "COc1ccccc1CNC(=O)c1ccc2nc(-c3ccccc3)c(-c3ccccc3)nc2c1", "activity change, positive = activation": "inactive: -20%"}
{"smiles": "CCn1cc(C(=O)NCc2ccc(C)cc2)c(=O)c2cc(S(=O)(=O)N3CCCCCC3)ccc21", "activity change, positive = activation": "inactive: -12.3%"}
{"smiles": "CCOc1ccc(CNC(=O)c2ccc(NC(=O)N3CCCCc4ccccc43)cc2)cc1OC", "activity change, positive = activation": "inactive: -6.07%"}
{"smiles": "O=C(CCc1nc2cccnc2n1Cc1cccs1)Nc1cccc(Cl)c1", "activity change, positive = activation": "inactive: -25.4%"}
{"smiles": "CCOC(=O)c1cc(-c2ccccc2)n(CCC(=O)Nc2ccc(Cl)c(C(F)(F)F)c2)c1C", "activity change, positive = activation": "inactive: -51.3%"}
{"smiles": "Cc1nn(C)c2c1c(C(F)(F)F)cc(=O)n2Cc1cccc(Br)c1", "activity change, positive = activation": "inactive: -4.37%"}
{"smiles": "CC(C)CNc1nc(Oc2ccc(OCC(N)=O)nn2)nc(N2CCOCC2)n1", "activity change, positive = activation": "inactive: -13.1%"}
{"smiles": "C/C=C/C=N/NC(=O)c1ccncc1", "activity change, positive = activation": "inactive: -6.15%"}
{"smiles": "Cn1cc(S(=O)(=O)N2CCCCCC2)cc1C(=O)NCc1ccccc1Cl", "activity change, positive = activation": "inactive: -32.3%"}
{"smiles": "CCOc1ccc(-n2c(-c3ccccc3)c(C)n3c4c(=O)n(C)c(=O)n(C)c4nc23)cc1", "activity change, positive = activation": "inactive: 22.1%"}
{"smiles": "Cc1cc(-c2nnc3n2CCCCC3)c(C)n1-c1ccccc1", "activity change, positive = activation": "inactive: -50.1%"}
{"smiles": "Cc1nc2c(C(=O)NCCc3ccccc3)cnn2c(C)c1Cc1c(F)cccc1Cl", "activity change, positive = activation": "inactive: 0.162%"}
{"smiles": "Cc1c2cnn(CC(=O)NCc3ccc(F)cc3)c(=O)c2c(C)n1Cc1ccccc1F", "activity change, positive = activation": "inactive: -15.5%"}
{"smiles": "COc1ccc(Cl)cc1Nc1ncnc2c1c(-c1ccccc1)cn2-c1ccccc1", "activity change, positive = activation": "inactive: -11.5%"}
{"smiles": "CC(C)(C)OC(=O)N1CCC(c2c(C(=O)NCc3cccs3)cnn2-c2ccc(F)cc2F)CC1", "activity change, positive = activation": "inactive: -32.7%"}
{"smiles": "CCOCCCNC(=O)c1cc2c(-c3ccc(OC)c(OC)c3)nn(C)c2s1", "activity change, positive = activation": "inactive: -39.2%"}
{"smiles": "COCCN1CCc2nc(SCC(=O)Nc3ccc(Br)cc3)[nH]c(=O)c2C1", "activity change, positive = activation": "inactive: 20.2%"}
{"smiles": "Cc1noc(/C=C/N(C)C)c1S(=O)(=O)N1CCCC(C(=O)Nc2ccc(F)cc2F)C1", "note": "(centres undefined)", "activity change, positive = activation": "inactive: -24.1%"}
{"smiles": "CCN(CC)C(=O)c1sc(NC(=O)C(C)Sc2nc(-c3ccccc3)cc(C(F)(F)F)n2)c(C(=O)OC)c1C", "note": "(centres undefined)", "activity change, positive = activation": "inactive: -25.3%"}
{"smiles": "CCC(=O)Nc1ccc(S(=O)(=O)NCc2ccc3c(c2)CCN3C(=O)c2ccc(C)cc2)cc1", "activity change, positive = activation": "inactive: -53.6%"}
{"smiles": "COc1cc(Nc2ncc(F)c(Nc3ccc4c(n3)NC(=O)C(C)(C)O4)n2)cc(OC)c1OC", "activity change, positive = activation": "inactive: -19.8%"}
{"smiles": "COC(=O)c1ccccc1NC(=O)CCC(=O)N1CCOc2ccccc21", "activity change, positive = activation": "inactive: -0.521%"}
{"smiles": "CCOC(=O)c1c(-c2ccccc2)csc1NC(=O)c1nc(S(=O)(=O)CC)ncc1Cl", "activity change, positive = activation": "inactive: -87.9%"}
{"smiles": "Cc1cccc(-c2c3c(=O)n(C)c(=O)n(C)c3cn2-c2cc(N)c(Cl)cc2Cl)c1", "activity change, positive = activation": "inactive: -33.1%"}
{"smiles": "CCN(c1ccccc1)c1nnc(NC(=O)Nc2cccc(Cl)c2C)s1", "activity change, positive = activation": "inactive: -9.44%"}
{"smiles": "CC(=O)c1ccc(NC(=O)Nc2nnc(N3CCCC(C)C3)s2)cc1", "note": "(centres undefined)", "activity change, positive = activation": "inactive: 8.62%"}
